# Whole data set: some 33,000 sequences, median “E-score (-0.5 to 0.5)” near -0.01, cut for the highest 2% near 0.26. The list shows a part of the results.
# Molecular target: Ste12 (UniProt P13574)
# Experiment: PBM E-score (8-mer binding enrichment) (E-score (-0.5 to 0.5)); higher = stronger / more preferred TF binding; most listed sequences are background and not binding sites
# Settings: protein concentration: 200 nM; construct: GST-DNA-binding domain
# Procedure: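 Universal 'all 10-mer' protein binding microarrays (Agilent AMADID 015681) probed with GST-tagged S. cerevisiae TFs (full-length or DBD) made by in vitro transcription/translation (PURExpress), about 100-200 nM. Bound TF was detected with fluorescent anti-GST. Each ungapped 8-mer (which stands for itself and its reverse complement) is scored by the PBM enrichment score (E-score), a modified Wilcoxon-Mann-Whitney statistic from -0.5 to +0.5, computed with the Universal PBM Analysis Suite. Scale: above 0.35 generally sequence-specific binding.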
row,Sequence,PBM E-score
1,GCGCGGCC,-0.0611
2,ACGCCCTG,-0.0344
3,CATGCGCA,0.0475
4,AATGGGCT,-0.092
5,TGGGGTAA,0.162
6,AGCGCTGC,-0.14
7,CAACACAA,0.0856
8,ATAACATG,-0.0746
9,ACCCAATA,0.0206
10,CCCCAAAC,0.106
11,ACTCGAAG,-0.205
12,CCCTCTCA,-0.12
13,CCCGAGTA,0.0146
14,TAATCCAA,0.201
15,CTTCCTAA,-0.074
16,CCGCACTA,0.0166
17,CGTGGGAG,-0.158
18,CCGAACCC,-0.187
19,ACCCCCAT,-0.266
20,ATATGTCC,0.0629
21,AAAACAGA,0.295
22,CGCTCGCA,0.165
23,CTTGATAA,-0.0163
24,GTCAGCAC,-0.117
25,ACTCTGTC,-0.0521

row,Sequence,PBM E-score
1,GCCACGAA,0.0318
2,ATACTTTC,0.125
3,GGAACTAA,0.0142
4,AGCCAGAT,-0.155
5,AGGCAAAA,0.231
6,ATCACAGA,-0.141
7,AATTACGC,-0.00082
8,CTGACGGC,-0.21
9,CCAATGAG,-0.258
10,AGCTGTCG,-0.23
11,ACAAGTTC,-0.00961
12,TATACAAA,0.127
13,GTCGACAA,0.0095
14,CCGAAGAG,-0.133
15,GGGCGTGA,0.1
16,GCCGCTTA,0.0462
17,ACCGAGAG,0.00749
18,AACGGACC,-0.0639
19,ACGGGAAC,-0.0807
20,CTAGGCGA,0.096
21,GACTTTAC,0.135
22,ATTGTTCA,0.0561
23,AGAAGGAA,-0.00229
24,ACGTGTTA,0.0692
25,AGCGTTAA,-0.0335

row,Sequence,PBM E-score
1,AGATAGCA,0.074
2,CGATTGAA,0.124
3,AGGCCACG,-0.0929
4,TAGCGCGA,0.0839
5,CTGTTTGC,-0.0149
6,CTACATGA,0.1
7,CGATAGTA,0.0487
8,ACCCGCGT,-0.0297
9,CATATACC,-0.111
10,GTTTCGCA,0.175
11,GGGGCAGA,-0.0951
12,TACTATCA,0.13
13,ACGCACCA,0.136
14,ATCAGAGA,-0.0666
15,CATTCTAA,-0.123
16,AATCACTC,-0.114
17,CCTGCTGC,-0.0239
18,ACTAAGCA,-0.207
19,AGGTTTCA,0.451
20,GAAGTGTC,-0.0821
21,ACTGAGTG,-0.0339
22,AGATCAGA,0.161
23,CGTTCTCC,0.0208
24,ACCTAAGC,-0.00123
25,CGGATACC,-0.159

row,Sequence,PBM E-score
1,TGCCACCA,-0.0824
2,ACGTTAAG,0.0794
3,ACTGATAG,0.0508
4,AGTAGGAC,-0.213
5,ATCTAACG,0.00561
6,AGAAGCAC,-0.0511
7,AATCTAGA,-0.13
8,CGGACCGC,-0.0939
9,GGTGCTCA,-0.0995
10,AGAACGAA,0.196
11,CGAGCATC,-0.0956
12,AGCCGTAC,-0.188
13,GATAAGAA,0.101
14,TGAAGACA,-0.0625
15,CGCGCCGA,0.2
16,CCCGGCCA,-0.116
17,AGCCGACT,-0.139
18,TCTGGGCA,-0.0341
19,ACAAACAG,0.125
20,TTACGTAA,-0.143
21,AGCCCTTC,-0.315
22,CAGCTGCA,-0.17
23,CAAGTCTC,-0.116
24,CAACTAAG,-0.127
25,GCTGCGCC,-0.161

row,Sequence,PBM E-score
1,GAACCAAA,-0.00617
2,AGCATAAA,0.142
3,AGCAGTCG,-0.0751
4,AAAGGTAT,-0.013
5,ACCGAAAT,0.0524
6,AGCCACCC,-0.17
7,ACGTCCAC,-0.181
8,ACGGTAAA,0.127
9,ACTCCAAG,0.0541
10,TAAAGTGA,0.251
11,AGTGGGGC,0.114
12,GAAGTGCA,0.00566
13,TCACGTCA,0.0866
14,TTTGCAAA,0.214
15,GTCTAGCA,-0.2
16,AAGATAAT,0.147
17,GCGGTCAA,-0.0277
18,CCGCGGTC,-0.159
19,GCCCTAGC,-0.0727
20,CATATTTA,0.172
21,AGATGACG,-0.197
22,AGAGCGAC,-0.0208
23,AAAAACGC,0.0966
24,CCTATGAG,-0.256
25,AAGACGTC,-0.00655

row,Sequence,PBM E-score
1,CCCTCGAG,0.0937
2,ACCTGCAG,-0.192
3,AACTGTCA,0.0126
4,AGTTGCGA,0.161
5,CATCTCGC,-0.0981
6,AGCTAGTC,-0.133
7,ACAATGCG,-0.0132
8,ACAGTGTA,0.0464
9,ACCCTTGA,-0.0413
10,GAGTTGCC,-0.0313
11,AGCCAGTG,-0.186
12,ATCCGCCG,-0.0274
13,AGTTGTTA,0.0689
14,AAGCGTGT,-0.102
15,CGCTATAA,-0.0257
16,TCGGGTCA,0.148
17,ATTACTCA,0.0131
18,ACTATGCC,0.0283
19,CCAAATGC,-0.104
20,AGTACTAT,-0.0622
21,ACAATGTC,0.134
22,AAAAGTGG,0.139
23,CCCTGCGG,-0.0798
24,AACACTCT,0.0333
25,AGATAAGA,0.212

row,Sequence,PBM E-score
1,CTTACAGA,0.019
2,AGCGCAGC,-0.22
3,CAATGCAG,-0.0488
4,CGTGACTA,-0.044
5,CTAATCGA,0.0141
6,AATACCGA,-0.00314
7,ACTCTGAA,0.177
8,CAGTCAAA,-0.031
9,ACAGGCAC,-0.162
10,CCCGATGA,0.0738
11,TATGGCGA,-0.0577
12,ATAGAGAA,0.0568
13,AAACGCTT,0.094
14,TCTTAACA,0.049
15,CACTTGAA,0.12
16,CGCATAGA,0.032
17,CGAGACGC,0.013
18,AATACATT,0.105
19,AGGAGCAT,-0.107
20,AGTTAACC,-0.0704
21,CCCTACTC,0.026
22,AATCTACA,-0.0241
23,AGTGACAC,-0.0528
24,GAATCACA,0.0627
25,CCCCCTTA,-0.17

row,Sequence,PBM E-score
1,AGCTTGAC,0.0986
2,CTTGGCTC,-0.189
3,AGCGGAGG,-0.165
4,AAAGCTCT,-0.14
5,AACCTATC,0.0216
6,CTTACATA,0.056
7,CAATCGTC,0.108
8,ACGAAGGG,-0.167
9,CCGTCACA,0.0955
10,TACTTTCA,-0.0131
11,GGCGTTAC,0.174
12,ACCTTAGG,-0.0732
13,ACGTAGGC,-0.224
14,AGATACCG,-0.109
15,CAAGTACG,-0.165
16,ATCCTGCA,0.0476
17,AGTCCTCA,-0.123
18,CGCAGACG,-0.0385
19,AGAAGCCC,-0.0519
20,CATAGGTC,-0.154
21,GGGCCCCA,-0.146
22,AAGGTCCA,-0.246
23,GTGTTGAA,-0.00889
24,GACCGATC,-0.141
25,ATTGAATG,0.185

row,Sequence,PBM E-score
1,GGGCCACA,-0.128
2,ATTCGCGC,-0.0541
3,CCGTCGTC,-0.243
4,CCGTATCG,-0.0954
5,CCGCGCAG,-0.0674
6,CAGACGAG,-0.0637
7,CGCTTAAC,-0.0505
8,GCTGTGGA,-0.122
9,ACAGACGG,-0.124
10,AAATGGCC,-0.216
11,ACTTACGG,-0.0382
12,ATGAGGCC,-0.0156
13,CTTGACTC,-0.0327
14,GGTCTGAA,0.0815
15,AGCCGATA,-0.226
16,GTAGAAAA,0.158
17,TGATCTAA,0.0892
18,CGGATGTA,-0.0651
19,AGGAGGCA,-0.234
